Laboratory results: PubChem BioAssay (Tox21)
The inconclusive results got no clear call from the source; some entries with a clear call stand among them for comparison. For some assays here: A potency beside an inconclusive call is a rough fit, not a confirmed value. A structure can be active in one record and inactive in another. Calls of active or inactive are those of the source. Unless noted, the call rests on the fitted dose curve; in most records, active means well fitted curve in the direction sought with a large enough effect in the repeat runs; inconclusive means weak or mixed curves; inactive means no such curve, though single readings can be large; an effect the other way counts as inactive or inconclusive.

Experiments:
[1] = molecular target: Estrogen receptor (Homo sapiens) (UniProt P03372); assay: qHTS assay to identify small molecule agonists of the estrogen receptor alpha (ER-alpha) signaling pathway using the BG1 cell line (AID 743079); details: BG1Luc4E2 cells, ERE-luciferase agonist, 22 h; further: nearly all actives have a fitted effect of over 20% in size; further: potency means the concentration at half of the fitted maximal effect; on activation: on the % scale 0 is the no-effect control and ±100 the full control effect
Chain of UniProt P03372 (P03372 whole entry, looked up): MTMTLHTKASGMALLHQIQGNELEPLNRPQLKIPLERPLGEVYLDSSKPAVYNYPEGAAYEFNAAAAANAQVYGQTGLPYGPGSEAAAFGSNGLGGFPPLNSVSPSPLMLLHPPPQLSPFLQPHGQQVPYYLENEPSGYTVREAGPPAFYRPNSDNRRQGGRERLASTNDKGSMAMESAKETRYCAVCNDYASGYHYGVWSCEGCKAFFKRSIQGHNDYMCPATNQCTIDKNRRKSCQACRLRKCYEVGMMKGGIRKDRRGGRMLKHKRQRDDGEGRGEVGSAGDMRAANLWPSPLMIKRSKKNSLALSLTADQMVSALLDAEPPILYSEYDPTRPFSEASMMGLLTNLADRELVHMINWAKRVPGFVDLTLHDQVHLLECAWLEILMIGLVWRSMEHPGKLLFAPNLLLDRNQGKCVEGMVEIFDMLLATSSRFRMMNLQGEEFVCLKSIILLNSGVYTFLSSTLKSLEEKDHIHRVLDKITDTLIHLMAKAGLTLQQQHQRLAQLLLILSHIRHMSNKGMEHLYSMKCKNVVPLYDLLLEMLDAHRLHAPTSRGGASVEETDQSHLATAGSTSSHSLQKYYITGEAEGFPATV

[2] = qHTS assay to identify small molecule antagonists of the estrogen receptor alpha (ER-alpha) signaling pathway using the BG1 cell line - cell viability counter screen (AID 743081); details: BG1Luc4E2 viability, CellTiter-Fluor, 22 h; activity change, negative = cytotoxicity: at 70.3 µM (top of the series);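 further: compound given together with 17beta-estradiol as the ER stimulus; on the % scale 0 is the no-effect control and ±100 the full control effect; nearly all actives have a fitted effect of over 45% in size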
[3] = qHTS assay to identify small molecule antagonists of the estrogen receptor alpha (ER-alpha) signaling pathway using the BG1 cell line (AID 743080; calls by dose curve;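 further: BG1 cells stimulated with 17beta-estradiol alongside compound; nearly all actives have a fitted effect of over 25% in size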; further: potency means the concentration at half of the fitted maximal effect; on activity change, negative = inhibition: on the % scale 0 is the no-effect control and ±100 the full control effect); details: BG1Luc4E2 ERE-luciferase antagonist mode, luminescence; activity change, negative = inhibition: at 70.3 µM (top of the series) unless noted
Method in brief: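 BG1Luc4E2, endogenous ER-alpha, 4xERE-luc; 5 d charcoal-stripped FBS, phenol red free; 24 h plating; cpd + 17beta-estradiol 21.5 h, 37 C/5% CO2; CellTiter-Fluor viability 30 min, then ONE-Glo luciferase 30 min RT.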

[4] = qHTS assay to identify aromatase inhibitors - cell viability counter screen (AID 743084); details: MCF-7 aro ERE viability, CellTiter-Fluor, 24 h; activity change, negative = cytotoxicity: at 70.3 µM (top of the series);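 further: cells stimulated with testosterone during compound exposure; on the % scale 0 is the no-effect control and ±100 the full control effect; nearly all actives have a fitted effect of over 55% in size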
[5] = molecular target: Peroxisome proliferator-activated receptor gamma (Homo sapiens) (UniProt P37231); assay: qHTS assay to identify small molecule agonists of the peroxisome proliferator-activated receptor gamma (PPARg) signaling pathway (AID 743094; active means well fitted activation curve with a large enough effect in the signal ratio in the repeat runs, not every such curve was filed as active; inconclusive means weak or mixed curves, or effect the other way; inactive means no such curve, though single readings can be large or run the other way; the % refers to the signal ratio; further: on the % scale 0 is the no-effect control and ±100 the full control effect); details: HEK293H PPARg-UAS-bla, beta-lactamase FRET ratio, 17 h
Chain of UniProt P37231 (P37231 whole entry, looked up): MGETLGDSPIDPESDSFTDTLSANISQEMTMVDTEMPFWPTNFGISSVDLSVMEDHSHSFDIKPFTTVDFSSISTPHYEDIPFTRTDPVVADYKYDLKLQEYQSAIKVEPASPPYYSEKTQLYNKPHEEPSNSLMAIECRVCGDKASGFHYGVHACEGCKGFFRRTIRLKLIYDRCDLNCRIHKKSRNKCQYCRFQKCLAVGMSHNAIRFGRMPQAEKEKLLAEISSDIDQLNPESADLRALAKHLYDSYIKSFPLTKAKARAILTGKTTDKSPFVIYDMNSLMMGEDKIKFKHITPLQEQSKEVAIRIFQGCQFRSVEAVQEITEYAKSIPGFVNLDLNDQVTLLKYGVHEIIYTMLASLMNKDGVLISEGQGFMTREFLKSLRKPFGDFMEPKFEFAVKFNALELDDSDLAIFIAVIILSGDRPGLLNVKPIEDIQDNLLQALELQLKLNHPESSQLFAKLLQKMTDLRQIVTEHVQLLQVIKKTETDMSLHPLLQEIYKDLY
Method in brief: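 Fluorescence-based beta-lactamase readout in HEK293H PPARg UAS-bla cells after 17 h compound exposure (37C) and 1 h B/G FRET substrate incubation at room temperature.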

[6] = molecular target: Peroxisome proliferator-activated receptor gamma (Homo sapiens) (UniProt P37231); assay: qHTS assay to identify small molecule antagonists of the peroxisome proliferator-activated receptor gamma (PPARg) signaling pathway (AID 743191; calls by dose curve; further: on the % scale 0 is the no-effect control and ±100 the full control effect; nearly all actives have a fitted effect of over 30% in size); details: HEK293H PPARg-UAS-bla, beta-lactamase ratio, antagonist, 17 h; ratio activity, negative = inhibition: at 62.6 µM (top of the series) unless noted
Method in brief: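 GeneBLAzer PPARg UAS-bla HEK293H cells, 5 h post-plating, exposed to compounds 17 h at 37C. LiveBLAzer B/G FRET substrate added for 1 h at room temperature; beta-lactamase reporter read by fluorescence intensity.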

[7] = qHTS assay to identify small molecule antagonists of the peroxisome proliferator-activated receptor gamma (PPARg) signaling pathway - cell viability counter screen (AID 743194); details: PPARg-bla HEK293H viability, CellTiter-Glo luminescence, 17 h, co-treated with 50 nM rosiglitazone; activity change, negative = cytotoxicity: at 62.6 µM (top of the series) unless noted; further: potency means the concentration at half of the fitted maximal effect; nearly all actives have a fitted effect of over 55% in size
Method in brief: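 Cytotoxicity counter screen in PPARg-bla HEK293H cells, same wells as reporter assay. Compounds plus 50 nM rosiglitazone (final) for 17 h at 37 C, then viability read by CellTiter-Glo luminescence.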

[8] = activation: at 70.3 µM (top of the series) unless noted
Tags describe the fitted curve by direction and shape.

## CN1C(=O)c2ccc([N+](=O)[O-])cc2C1=O
[1]; [8]
  Potency: inactive

## NCCN
[1]; [8]
  Potency: active: 0.0376 µM
  activation: inconclusive: -11.3% [phenotype inactive] [at 95 µM]
[2]
  Potency: inactive

## C[C@@H](O)[C@H]1C(=O)N2C(C(=O)O)=C(SCCN=CN)C[C@H]12
[1]; [8]
  Potency: inactive

## NC(N)=NC(=O)c1nc(Cl)c(N)nc1N
[1]; at 70.3 µM (top of the series)
  activation: inconclusive: 24.9% [phenotype inactive]
[1]; at 95 µM (top of the series)
  activation: inconclusive: -1.28% [phenotype inactive]
[3]
  Potency: inconclusive: 33.5 µM [single point] and inactive
[4]
  Potency: inactive
[5]; activation: at 57 µM (top of the series) unless noted
  activation: inconclusive: 7.15%
[5]; at 57 µM (top of the series)
  activation: inactive: 3.62%
[5]; at 78.9 µM (top of the series)
  activation: inactive: 0.235%
[6]
  ratio activity, negative = inhibition: inconclusive: 1.68%
[7]
  Potency: inconclusive: 0.62 µM [rising, full curve, poor fit]

## CCC(=O)OC(C)(C)C1CC=C(C)CC1 (stereo not drawn)
[1]; [8]
  activation: inconclusive: -10.8% [phenotype inactive]

## CC1=CC(C)C(C=O)CC1 (stereo not drawn)
[1]; [8]
  Potency: inconclusive: 0.0097 µM [activator, full curve, poor fit]

## Nc1ccc(-c2ccc(F)cc2)cc1
[1]; [8]
  Potency: active: 54.5 µM
[3]
  Potency: inconclusive: 2.43 µM [rising, full curve]

## CC(C)(C)c1ccc(OC(=O)c2ccccc2O)cc1
[1]; [8]
  Potency: active: 27.3 µM
[3]
  Potency: inconclusive: 24.3 µM [rising, partial curve]

## CCCC(=O)OCc1ccccc1
[1]; [8]
  Potency: inactive

## C=C(C)C(=O)O[C@H]1C[C@@H]2CC[C@@]1(C)C2(C)C
[1]; [8]
  Potency: inactive

## O=C(Oc1ccccc1C(=O)O)c1ccccc1O
[1]; [8]
  Potency: active: 26.6 µM
